This data set relates to ATP. Put plainly: switch fluorescence ratio, 500 uM ATP over buffer (Cy3 cluster intensity, sum of 5 cycles each) (fold (ratio)); higher = stronger signal-on switching upon ATP binding; sequences stand for … in TCGTCGGCAGCGTCAGATGTGTATAAGAGACAGTTTTTTTTTTTTTTTTTTTTTTTTT…TC. Conditions: aptamer strand: ATP DNA aptamer (quencher-CACCTGGGGGAGTATTGCGGAGGAAGG + anchor), 100 nM annealed; ATP concentration: 500 uM; one replicate. The method in brief:
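The quencher-labelled ATP aptamer, at 100 nM, was annealed to Cy3-labelled switching-strand clusters on a modified Illumina MiSeq flow-cell. The clusters were imaged in selection buffer, then after 15 min with 500 uM ATP at 22 °C, and this buffer/ATP cycle ran five times with NaOH stripping and re-annealing between runs. Per-cluster fluorescence ratios, summed target-cycle over summed buffer-cycle Cy3 intensity, were averaged per switch-domain sequence. Clusters outside 100-1000 RFU were excluded.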

Sequences with one replicate were seen in a single cluster, so their values are uncertain.
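Further: ATP exposure 15 min at 22 °C before imaging.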

For the sequence TTGGCATCGC, the switch fluorescence ratio is 0.989. As for GTCTGCGGTC, the switch fluorescence ratio was 1.07. Turning to ATTGCAGGGG, the switch fluorescence ratio amounted to 1.11. With TACGTGGATG, the switch fluorescence ratio came to 0.994. For ATTAGCCGCA, the switch fluorescence ratio was 1.09. For CTTAAGGTAC, the switch fluorescence ratio is 1.11. In the case of GGTCTATGCT, the switch fluorescence ratio worked out at 0.984. To AGTTGACACT belongs 0.993; to CAGTAGTGG, 1.01; to GGCTATAGAC, 1.05. To TGGAAATCGA belongs 0.997. For the sequence AATAGTATCC, the switch fluorescence ratio amounted to 1.04. As for ATTAAAGGCT, the switch fluorescence ratio came out at 1.01. For the sequence CTACCAACAG, the switch fluorescence ratio stood at 1.1. Take GAACTTGACA: the switch fluorescence ratio amounted to 1.06. To CCTGGGGTGC belongs 1.66. Turning to CGATGACATA, the switch fluorescence ratio stood at 0.982.

For the sequence TTAAGCTTGT, the switch fluorescence ratio came out at 0.933. Turning to CGGTATCATG, the switch fluorescence ratio stood at 0.905. As to TATTTCGCTT, the switch fluorescence ratio stood at 1.06.

With GACTGTGATT, the switch fluorescence ratio was found to be 0.997. Take ACATGGGTGA: the switch fluorescence ratio is 0.993. As for ATCGATTGTA, the switch fluorescence ratio is 1.04.

Take CATTCTATAT: the switch fluorescence ratio came out at 0.95. GGCTGCCCCC: the switch fluorescence ratio is 0.986.

Take AGTGGGCGAG: the switch fluorescence ratio worked out at 0.976. Take TTTCCCCTCG: the switch fluorescence ratio is 1.03.

On to ACTGGAGGTC, for which the switch fluorescence ratio came out at 0.997. For GCTCGTTTGC, the switch fluorescence ratio was found to be 1.04. The same measure for CGGCGACCAG: 0.984. Regarding CAAACGG, the switch fluorescence ratio came out at 1.19. The same measure for TGGTTCGCGT: 1.1.

Take CGTATGGAG: the switch fluorescence ratio came to 0.967.

Consider TTCTAAGAAG, for which the switch fluorescence ratio came to 0.957. With ATAGGGAAGG, the switch fluorescence ratio was 0.94. Turning to CGGCGTCAGT, the switch fluorescence ratio is 1.03. The same measure for GATATAAAAC: 1.06; for TCCCATTAAG: 0.994. On to GAAAGGAACA, for which the switch fluorescence ratio is 1.02. Take GTTTATAAGA: the switch fluorescence ratio turned out to be 0.989. On to GGACCTCGT, for which the switch fluorescence ratio turned out to be 0.954. For TGACAGTTTA, the switch fluorescence ratio turned out to be 0.998. On to TCCGTGTCCT, for which the switch fluorescence ratio was determined as 1.09. To TACTGGTT belongs 1.02; to TCAATGCGTA, 1.29.

GACTGAGCTT: the switch fluorescence ratio worked out at 1.06. As to TCGGTGGCAG, the switch fluorescence ratio was found to be 0.981. With CCATTGTCCA, the switch fluorescence ratio was determined as 1.02. Regarding CGACGCTGGT, the switch fluorescence ratio came to 2.65. On to CAGAAACTCG, for which the switch fluorescence ratio was 0.984. With AACGGAATTT, the switch fluorescence ratio stood at 1.1. Consider TCAGCGAGTG, for which the switch fluorescence ratio was found to be 1.01. As for ACCGCAACAT, the switch fluorescence ratio worked out at 3.56. For CTTTAAGAGG, the switch fluorescence ratio turned out to be 1.03. For GCATGTGTCA, the switch fluorescence ratio was 1.03. As to GACAGGAAGG, the switch fluorescence ratio came to 0.984. As to CTATAGTCTC, the switch fluorescence ratio was 0.996. On to TTCATCTATT, for which the switch fluorescence ratio turned out to be 1.03. As to AATTGCCGAA, the switch fluorescence ratio amounted to 1. For ACCCAGAGGA, the switch fluorescence ratio is 1.04. As for TTTATGGCTC, the switch fluorescence ratio stood at 1.03.

For the sequence TCAGTTTATC, the switch fluorescence ratio came to 0.99.

On to TGAAATTCCT, for which the switch fluorescence ratio was 1.27.

With AGGAGCTGAG, the switch fluorescence ratio amounted to 1.06. To CGAAGATAGG belongs 1; to AGGGGGG, 0.999.

Take TAGGGATCAT: the switch fluorescence ratio was 0.978.
